# According to PubChem BioAssay AID1240 (Sanford-Burnham Center for Chemical Genomics, 2008):
# Hit rate of the full screen: of about 50,000 compounds, about 800 (1.6%) showed an effect of 50% or more. The list shows a part of the results.
# Target: Bcl-2-like protein 10 (Homo sapiens) (UniProt Q9HD36)
# Test: TR3 peptide-Bcl-B binding displacers, biochemical primary FP assay, phenotype converters (AID 1240);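 further: 0% = Bcl-B with tracer peptide and DMSO and 100% = tracer peptide lacking Bcl-B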
# Conditions: GST-Bcl-B / FITC-TR3 peptide fluorescence polarization; stronger effect = higher value; compound at 3.75 mg/L
# Chain of UniProt Q9HD36 (Q9HD36 whole entry, looked up): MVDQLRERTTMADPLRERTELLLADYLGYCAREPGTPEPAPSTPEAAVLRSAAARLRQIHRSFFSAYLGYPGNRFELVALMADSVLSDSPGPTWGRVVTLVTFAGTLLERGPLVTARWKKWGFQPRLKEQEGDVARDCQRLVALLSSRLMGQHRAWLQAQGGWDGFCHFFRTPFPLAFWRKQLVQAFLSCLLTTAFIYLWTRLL
row,Compound,displacement
1,CCOC(=O)C(=CC1=C/C(=C/N(C)C)C(=O)O1)C(=O)OCC,-13.2%
2,CCOC(=O)c1ccc(NC2=NC3(CCCCC3)N=C(N)N2)cc1,-7.7%
3,CCOc1ccc(N2Cc3ccccc3C2)cc1,1.9%
4,O=C1CCCC2=C1C(c1ccc(F)cc1)Nc1ccc(C(=O)c3ccccc3)cc1N2 (configuration not stated),-7.2%
5,O=S(=O)(c1cccs1)n1cnc2ccccc21,-1.7%
6,O=C(NCCO)c1cccc([N+](=O)[O-])c1,0.3%
7,CC1=NN(C(=O)c2cccc(Cl)c2)C(O)(c2cccnc2)C1 (configuration not stated),-11.5%
8,COc1ccc(N2C(=O)CC(N3CCN(c4ccccc4F)CC3)C2=O)cc1 (configuration not stated),-0.5%
9,CCN(CC)c1ccc(NS(=O)(=O)c2ccc([N+](=O)[O-])cc2)cc1,-2.3%
10,Cc1ccc(/C=N/c2nc3ccc(Br)cc3s2)c(O)c1,-2.9%
11,CSc1ccc(C2NC(=O)c3ccccc3N2)cc1 (configuration not stated),12.2%
12,O=C(Nc1ccc2nn(-c3ccc(F)cc3)nc2c1)c1ccncc1,3%
13,O=C1C(Nc2ccc(Cl)cc2)=C(N2CCOCC2)C(=O)c2ccccc21,7.3%
14,N/C(=N\OC(=O)c1ccc(Br)cc1)c1ccc(Cl)cc1,2.2%
15,COc1cc(C2C3=C(CC(C)(C)CC3=O)OC3=C2C(=O)CC(C)(C)C3)cc2sc(=O)oc12,-8%
16,COc1ccc(-c2cc(C(=O)NC34CC5CC(CC(C5)C3)C4)c3ccccc3n2)cc1OC,-5.1%
17,O=C(N/N=C/c1ccc([N+](=O)[O-])c(O)c1)c1cccc(F)c1,-7.8%
18,CCOc1cc(C=C2C(=O)NC(=O)NC2=O)ccc1OCc1ccccc1,33.7%
19,CCOC(=O)c1sc(NC(=O)CCCOc2ccc(Cl)cc2Cl)nc1C,13.7%
20,Cc1cccc(C(=O)Nc2ccccc2)c1,-4.7%
21,CC(=O)CC(=O)NC12CC3CC(CC(C3)C1)C2,-13.2%
22,CC1CCN(C(=O)c2ccccc2)CC1,6.7%
23,CC(C)c1ccc(/C=N\NC(=O)c2cc(C(C)(C)C)[nH]n2)cc1,-10.7%
24,COc1ccc(NC2CC(O)C(CO)O2)c([N+](=O)[O-])c1 (configuration not stated),-3.1%

row,Compound,displacement
1,C/C(=N\NC(=O)COc1ccccc1C)c1ccc(Br)cc1,3.9%
2,NS(=O)(=O)c1ccc(CCNC(=S)NC(=O)c2cccs2)cc1,-6.3%
3,CCOC(=O)c1c(C)oc2c1C(=O)c1ccccc1C2=O,-9.7%
4,COc1cc(NC(=O)c2cccc(C)c2)cc(OC)c1,-13%
5,Cc1ccc(C(C)C)c(COCC(O)CN2CC(C)CC(C)C2)c1 (configuration not stated),-4%
6,O=C(Nc1ccc2nn(-c3ccc(F)cc3)nc2c1)c1ccc2c(c1)OCCO2,-0.4%
7,COc1ccc(C(CC(=O)O)CC(=O)O)cc1OC,-6.2%
8,COc1ccccc1NC(=O)CN(c1ccc(C)cc1)S(=O)(=O)c1ccc(SC)cc1,10.6%
9,CC1CCCC(C)N1C(=O)COc1ccc2ccccc2c1 (configuration not stated),9.2%
10,COc1ccc(NC(=O)c2c(NC(=O)c3ccc([N+](=O)[O-])cc3)sc3c2CCCC3)cc1,-6.3%
11,Cc1ccc(OCC(=O)NC23CC4CC(CC(C4)C2)C3)c(Br)c1,-3.1%
12,Cc1ccc(-c2nc3ccccc3o2)cc1NC(=O)/C=C/c1ccc(Cl)cc1,29.5%
13,O=C(Oc1ccc2c(-c3ccccc3)cc(=O)oc2c1)c1ccccc1Cl,12.3%
14,CCOc1ccc(S(=O)(=O)N2CCN(c3ccccc3)CC2)c2ccccc12,-4.7%
15,Cc1[nH]c(=O)c(C(=O)/C=C/c2cccs2)c2c1CCCC2,119%
16,CCN(CC)CC(O)COc1ccccc1 (configuration not stated),15.7%
17,CC(C)c1nnc(NC(=O)COC(=O)/C=C/c2ccc([N+](=O)[O-])cc2)s1,-9.5%
18,Cc1ccc(-c2ccc(C(=O)Nc3ccc(N4CCOCC4)cc3)o2)cc1Cl,10.8%
19,CC1(C)Cc2c(sc3nc(SCc4ccccc4)n(CCc4ccccc4)c(=O)c23)CO1,-5.1%
20,O=C(NCCN1CCOCC1)c1cc(-c2ccc(Br)cc2)nc2ccccc12,-5.8%
21,O=C(NNC1=C(C(=O)C(F)(F)F)CCC1)c1ccc(O)cc1,-12%
22,NC(=S)N/N=C/c1ccc(-c2cccc(Cl)c2Cl)o1,-16.3%
23,O=C(NCc1ccccc1F)c1ccccc1-c1ccccc1,-1.6%
24,CCOc1ccc2oc(=O)cc(C)c2c1,7.5%

row,Compound,displacement
1,O=C1c2ccccc2C(=O)N1CCCc1nc2ccccc2c(=O)n1Cc1ccco1,-6.3%
2,CN1CCN(C(=O)c2ccccc2NC(=O)CCCN2C(=O)c3ccccc3C2=O)CC1,-8.1%
3,Clc1ccc(CNC23CN4CN(CN(C4)C2)C3)cc1,-0.4%
4,Cc1ccc(/C=C2\C(=O)NC(=O)N(Cc3ccccc3)C2=O)o1,18%
5,CC(C)=NNC(=O)CN(C1=NS(=O)(=O)c2ccccc21)c1ccccc1,-6%
6,Cc1cccc(NC(=O)C(C)Oc2cccc(Cl)c2)n1 (configuration not stated),1%
7,Oc1ccc2nc(-c3ccccc3)[nH]c2c1,5.5%
8,Cc1ccccc1NC(=O)c1cccc(S(=O)(=O)NC2CCCCC2)c1,3.5%
9,Cc1ccc(C2c3c(n(C)c(=O)n(C)c3=O)N=C3c4ccccc4C(=O)C32)cc1Cl (configuration not stated),12.7%
10,CC(=O)c1ccc(NC(=O)/C(=C\c2ccc(Br)cc2)NC(=O)c2ccco2)cc1,-4.7%
11,O=C(CCCOc1ccccc1)Nc1ccc(Cl)c(Cl)c1,5%
12,Cn1nnnc1SCC(=O)c1ccc(Br)cc1,16.2%
13,O=C(N/N=C/c1cccs1)c1cc(C23CC4CC(CC(C4)C2)C3)[nH]n1,-11.4%
14,CCCC1CCc2c(sc(N)c2C#N)C1 (configuration not stated),-8.3%
15,COC(=O)c1ccccc1NC(=O)c1cccc([N+](=O)[O-])c1C,-9.7%
16,O=C(O)C1C2CCC(C2)C1C(=O)Nc1nc(-c2ccc(Br)cc2)cs1 (configuration not stated),-3.2%
17,O=c1[nH]c2ccccc2nc1/C=C(\O)c1cccs1,98.7%
18,CN1C(=O)C(=Cc2ccccc2OCc2ccccc2F)C(=O)N(C)C1=O,11%
19,CNC(=O)C(=O)Nc1ccc2c(c1)OCO2,5.2%
20,Cc1ccc(-c2csc(NC(=O)C3C4C=CC(O4)C3C(=O)O)n2)cc1 (configuration not stated),-3.8%
21,COc1cc(C)c(CNC23CC4CC(CC(C4)C2)C3)cc1C,8.1%
22,O=C(NNC(=O)c1ccco1)c1cccc(I)c1,-6.6%
23,CCC(C)c1c(O)nc(SCC(=O)N2CCOCC2)[nH]c1=O (configuration not stated),6.6%
24,Cc1ccc(-c2cc(C(=O)NCC3CCCO3)c3ccccc3n2)c(C)c1 (configuration not stated),-7.2%
